# From paper PMC4926073, “Absorption and Transport of Sea Cucumber Saponins from Apostichopus japonicus” (Marine Drugs, 2016)
# Conditions: for Short-Term Stability, Accuracy (%) / Long-Term Stability, Accuracy (%) / Freeze-Thaw Stability, Accuracy (%): perfusate; for Short-Term Stability, Accuracy (%): ambient temperature 24 h; for Long-Term Stability, Accuracy (%): ambient temperature 5 d
compound,measurement,setting,value
C=C(C)CCCC1(C)OC(=O)C23CC=C4C(CCC5C4(C)CCC(OC4OCC(OC6OC(CO)C(O)C(OC7OC(CO)C(O)C(OC)C7O)C6O)C(O)C4OC4OC(C)C(OC6OCC(O)C(OC7OC(CO)C(O)C(OC)C7O)C6O)C(O)C4O)C5(C)C)C2(C)CC(=O)C13 (stereo not shown) [Holotoxin A1],"Short-Term Stability, Accuracy (%)",nominal conc. 100.00 ng/mL,92.7%
same,"Long-Term Stability, Accuracy (%)",nominal conc. 100.00 ng/mL,92.4%
same,"Freeze-Thaw Stability, Accuracy (%)","nominal conc. 100.00 ng/mL, frozen at −20 °C 24 h, thawed at ambient temperature",88.2%
same,"Freeze-Thaw Stability, Accuracy (%)",nominal conc. 1000.00 ng/mL,92.1%
same,"Short-Term Stability, Accuracy (%)",nominal conc. 1000.00 ng/mL,90.9%
same,"Long-Term Stability, Accuracy (%)",nominal conc. 1000.00 ng/mL,91.3%
same,"Freeze-Thaw Stability, Accuracy (%)",nominal conc. 5000.00 ng/mL,94.3%
same,"Short-Term Stability, Accuracy (%)",nominal conc. 5000.00 ng/mL,93.8%
same,"Long-Term Stability, Accuracy (%)",nominal conc. 5000.00 ng/mL,94.8%
same,stability in perfusate under three conditions,"range over freeze-thaw, short-term, long-term and both compounds",88.2%–94.8

# Where two headings read alike, the source gives them in different places.
